Source: the supplement of paper PMC4604168 (melanoma cell lines)
The list shows a part of the results. Many values rest on one well or one pass, so single values are uncertain.

How the values were obtained:
Experiment in all cases: cell count relative to DMSO control; melanoma cells; higher = more viable cells
Conditions in all cases: library dose: standard library concentration; 72 h
G361 = test system: G361
IPC-298 = test system: IPC-298
IST-MEL1 = test system: IST-MEL1
LOXIMVI = test system: LOXIMVI
MEL-HO = test system: MEL-HO
MeWo = test system: MeWo
RPMI7951 = test system: RPMI7951
RVH-421 = test system: RVH-421
SkMel28 = test system: SkMel28
SkMel2 = test system: SkMel2
SkMel30 = test system: SkMel30
SkMel5 = test system: SkMel5
UACC257 = test system: UACC257
UACC62 = test system: UACC62
WM115 = test system: WM115
WM1716 = test system: WM1716
WM1745 = test system: WM1745
WM3526 = test system: WM3526
LB2518-MEL = test system: LB2518-MEL
MZ2-MEL = test system: MZ2-MEL
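Note: cells treated in 1,536-well plates, then fixed and DAPI-stained, with nuclei counted from automated high-throughput microscope images.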

Row | Structure (SMILES) | cell count (G361) [%] | cell count (IPC-298) [%] | cell count (IST-MEL1) [%] | cell count (LOXIMVI) [%] | cell count (MEL-HO) [%] | cell count (MeWo) [%] | cell count (RPMI7951) [%] | cell count (RVH-421) [%] | cell count (SkMel28) [%] | cell count (SkMel2) [%] | cell count (SkMel30) [%] | cell count (SkMel5) [%] | cell count (UACC257) [%] | cell count (UACC62) [%] | cell count (WM115) [%] | cell count (WM1716) [%] | cell count (WM1745) [%] | cell count (WM3526) [%] | cell count (LB2518-MEL) [%] | cell count (MZ2-MEL) [%]
1 | CC(=O)O[C@@]12CO[C@@H]1C[C@H](O)[C@@]1(C)C(=O)[C@H](O)C3=C(C)[C@@H](OC(=O)[C@H](O)[C@@H](NC(=O)OC(C)(C)C)c4ccccc4)C[C@@](O)([C@@H](OC(=O)c4ccccc4)[C@H]21)C3(C)C [Docetaxel] + CC(C)C[C@H](NC(=O)[C@H](Cc1ccccc1)NC(=O)c1cnccn1)B(O)O [Bortezomib] (first compound 0.0005 µM, partner dose 0.005 µM) | 1.7 | 10.5 | 13.8 | 9.14 | 20.9 | 16.3 | 3.55 | 16.1 | 25.7 | 18.5 | 24.2 | 24 | 75.3 | 49.4 | 23.4 | 21.6 | 19.5 | 21.9 |  | 
2 | Nc1ccn([C@@H]2O[C@H](CO)[C@@H](O)C2(F)F)c(=O)n1 [gemcitabine] + O=C(Nc1ccccc1)c1cc([N+](=O)[O-])ccc1Cl [GW9662] (first compound 0.002 µM, partner dose 10 µM) | 42.9 | 70.6 | 43.5 | 66.9 | 60.6 | 40.1 | 43.7 | 72.9 | 54.8 |  | 90.4 | 65.5 | 77.4 | 62.3 | 62.7 | 73.5 |  | 91.2 |  | 
3 | Nc1ccn([C@@H]2O[C@H](CO)[C@@H](O)C2(F)F)c(=O)n1 [gemcitabine] + O=C(CCCCCCC(=O)Nc1ccccc1)NO [vorinostat] (first compound 0.002 µM, partner dose 0.4 µM) | 41.6 | 59.9 | 32.5 | 68.9 | 61.7 | 41.4 | 36.8 | 51.9 | 72.3 |  | 90.3 | 78.2 | 77.1 | 69.7 | 72.7 | 58.5 | 34.2 | 85.1 |  | 
4 | CC(=O)c1c(C)c2cnc(Nc3ccc(N4CCNCC4)cn3)nc2n(C2CCCC2)c1=O [palbociclib] + CCN(CC)CCCCNc1ncc2cc(-c3cc(OC)cc(OC)c3)c(NC(=O)NC(C)(C)C)nc2n1 [PD173074] (first compound 0.2 µM, partner dose 0.5 µM) | 64.7 | 70.3 | 68.7 | 77.7 | 76.4 | 46.9 | 66.5 | 74 | 39 | 55.6 | 82.8 | 62.2 | 72.4 | 64.4 | 68.6 | 43.7 |  | 58.2 | 52.1 | 77.8
5 | Nc1ncn([C@H]2C[C@H](O)[C@@H](CO)O2)c(=O)n1 [decitabine] + COc1ccc(COc2ccc(Cc3cnc(N)nc3N)cc2OC)cc1 [GW2580] (first compound 0.5 µM, partner dose 5 µM) | 70.6 | 63 | 80.8 | 86.9 | 72.4 | 57.8 | 83 | 72 | 79.2 |  | 124 | 59.6 | 91.1 | 60.2 | 74 | 67.4 |  | 95 |  | 
6 | Nc1nc(F)nc2c1ncn2[C@@H]1O[C@H](CO)[C@@H](O)[C@@H]1O [fludarabine] + COc1ccc(-c2ccc3c(N4CCOCC4)nc(N4C[C@@H](C)O[C@@H](C)C4)nc3n2)cc1CO [KU0063794] (first compound 1 µM, partner dose 0.1 µM) | 88.6 | 55.1 | 76.7 | 104 | 78 | 74.9 | 68.2 | 82 | 1.81 | 3.51 | 25.1 | 26.7 | 28.9 | 77.5 | 79.4 | 82.6 |  | 28.4 | 77.3 | 78.4
7 | CC(=O)O[C@@]12CO[C@@H]1C[C@H](O)[C@@]1(C)C(=O)[C@H](O)C3=C(C)[C@@H](OC(=O)[C@H](O)[C@@H](NC(=O)OC(C)(C)C)c4ccccc4)C[C@@](O)([C@@H](OC(=O)c4ccccc4)[C@H]21)C3(C)C [Docetaxel] + COc1cc2ncnc(Nc3ccc(Oc4ccccc4)cc3)c2cc1OC [SrcI1] (first compound 0.0005 µM, partner dose 10 µM) | 13.5 | 38.5 | 47.1 | 57.7 | 45 | 29.4 | 18.3 | 64.2 | 28.3 | 37.3 | 48.2 | 37.1 | 63.9 | 51.5 | 36.6 | 32.3 |  | 37 |  | 
8 | CO[C@H]1C[C@@H]2CC[C@@H](C)[C@@](O)(O2)C(=O)C(=O)N2CCCC[C@H]2C(=O)O[C@H]([C@H](C)C[C@@H]2CC[C@@H](OCCO)[C@H](OC)C2)CC(=O)[C@H](C)/C=C(\C)[C@@H](O)[C@@H](OC)C(=O)[C@H](C)C[C@H](C)/C=C/C=C/C=C/1C [everolimus] + CC(C)CCN1c2nc(Nc3cc(F)c(O)c(F)c3)ncc2N(C)C(=O)C1C [BID1870] (first compound 0.1 µM, partner dose 1 µM) | 54.1 | 60.3 | 66.1 | 65 | 61.7 | 48.8 | 70.3 | 75.4 | 32.9 |  | 55.7 | 47.1 | 74.1 | 59.6 | 62 | 70.3 |  | 57.3 |  | 
9 | CO[C@H]1C[C@@H]2CC[C@@H](C)[C@@](O)(O2)C(=O)C(=O)N2CCCC[C@H]2C(=O)O[C@H]([C@H](C)C[C@@H]2CC[C@@H](OCCO)[C@H](OC)C2)CC(=O)[C@H](C)/C=C(\C)[C@@H](O)[C@@H](OC)C(=O)[C@H](C)C[C@H](C)/C=C/C=C/C=C/1C [everolimus] + OCCn1cc(-c2cnc3nnn(Cc4ccc5ncccc5c4)c3n2)cn1 [PF04217903] (first compound 0.1 µM, partner dose 5 µM) | 54.1 | 78.7 | 77.3 | 69.3 | 68.2 | 62.3 | 71.4 | 83.1 | 45.2 | 65.8 | 76.9 | 56.4 | 79.5 | 79.8 | 63.9 | 62.6 | 73.9 | 78.5 |  | 
10 | CC(=O)c1c(C)c2cnc(Nc3ccc(N4CCNCC4)cn3)nc2n(C2CCCC2)c1=O [palbociclib] + COc1cc(Nc2ncc(F)c(Nc3ccc4c(n3)NC(=O)C(C)(C)O4)n2)cc(OC)c1OC [Tamatinib] (first compound 0.2 µM, partner dose 2 µM) | 53.2 | 72.4 | 52.6 | 39.3 | 55.4 | 41.1 | 30 | 66 | 48.9 |  | 70.2 | 35.2 | 67.8 | 64.8 | 41.7 | 41.7 | 36.7 | 47.8 |  | 
11 | CC(=O)c1c(C)c2cnc(Nc3ccc(N4CCNCC4)cn3)nc2n(C2CCCC2)c1=O [palbociclib] + COc1ccc(COc2ccc(Cc3cnc(N)nc3N)cc2OC)cc1 [GW2580] (first compound 0.2 µM, partner dose 5 µM) | 60.3 | 72.9 | 72.8 | 86.1 | 91.4 | 58.7 | 66.2 | 68.8 | 38.4 |  | 79.9 | 46.3 | 78.1 | 80.9 | 42.1 | 38.3 |  | 53.9 |  | 
12 | CC(=O)O[C@@]12CO[C@@H]1C[C@H](O)[C@@]1(C)C(=O)[C@H](O)C3=C(C)[C@@H](OC(=O)[C@H](O)[C@@H](NC(=O)OC(C)(C)C)c4ccccc4)C[C@@](O)([C@@H](OC(=O)c4ccccc4)[C@H]21)C3(C)C [Docetaxel] + O=C(O)c1ccc2c(c1)nc(Nc1cccc(Cl)c1)c1ccncc12 [CX4945] (first compound 0.0005 µM, partner dose 2 µM) | 11.4 | 32.9 | 38.2 | 31.2 | 31.6 | 29.4 | 20.7 | 42 | 9.97 | 20.5 | 36.1 | 27.4 | 53 | 36.5 | 32.8 | 22.8 | 22.9 | 29.6 |  | 
13 | CC(=O)c1c(C)c2cnc(Nc3ccc(N4CCNCC4)cn3)nc2n(C2CCCC2)c1=O [palbociclib] + O=c1cc(-c2cccc3c2Sc2ccccc2S3)oc(N2CCOCC2)c1 [KU55933] (first compound 0.2 µM, partner dose 5 µM) | 44.1 | 68 | 62 | 105 | 64.6 | 48.8 | 49.7 | 60.3 | 38.1 | 46.7 | 67.1 | 39.2 | 74.8 | 53.3 | 60.9 | 34.5 |  | 44.3 | 71.7 | 58.5
14 | Nc1ncn([C@H]2C[C@H](O)[C@@H](CO)O2)c(=O)n1 [decitabine] + Cn1cncc1[C@@](N)(c1ccc(Cl)cc1)c1ccc2c(c1)c(-c1cccc(Cl)c1)cc(=O)n2C [tipifarnib] (first compound 0.5 µM, partner dose 0.05 µM) | 87.3 | 69.6 | 68.1 | 93.1 | 91.1 | 84.3 | 73 | 78.9 | 94.9 | 97.1 | 117 | 115 | 87.2 | 78.6 | 78.4 | 63.7 | 112 | 97.3 |  | 
15 | Nc1ccn([C@@H]2O[C@H](CO)[C@@H](O)C2(F)F)c(=O)n1 [gemcitabine] + Cn1cc(/C=C2\C(=O)Nc3cccnc32)c2ccccc21 [GW441756] (first compound 0.002 µM, partner dose 2 µM) | 114 | 55.6 | 63.9 | 101 | 81.5 | 72.9 | 99.7 | 85.1 | 102 | 125 | 116 | 82.7 | 79.9 | 77.9 | 83 | 85.7 |  | 111 |  | 
16 | CC(=O)c1c(C)c2cnc(Nc3ccc(N4CCNCC4)cn3)nc2n(C2CCCC2)c1=O [palbociclib] + COc1cc(N2CCC(N3CCN(C)CC3)CC2)ccc1Nc1ncc(Cl)c(Nc2ccccc2S(=O)(=O)C(C)C)n1 [NVP-TAE684] (first compound 0.2 µM, partner dose 0.4 µM) | 62.3 | 78.7 | 63.1 | 64.8 | 66.1 | 41.3 | 44.9 | 53.9 | 47.6 | 52.9 | 72.3 | 51 | 87.7 | 59.7 | 48.6 | 35.5 |  | 50.1 | 55.6 | 65
